In ChEMBL document CHEMBL4888484, “Replenishing the malaria drug discovery pipeline: Screening and hit evaluation of the MMV Hit Generation Library 1 (HGL1) against asexual blood stage Plasmodium falciparum ,using a nano luciferase reporter read-out” (2022):
In all, about 150,000 compounds went through this assay and about 540 (0.36%) showed an effect of 50% or more. This is one part of the list.

Test system: Plasmodium falciparum
Assay: Primary screen in NF54 nanoGlo assay, in single point, at 2uM, 72h; a lower Z score goes with more inhibition
Assay type: functional, Erythrocyte
Settings: timepoint 72 hour

Point of comparison: CC(C)(C(=O)NC[C@H](Cc1ccccc1Cl)C(N)=O)c1c[nH]cn1, “% Inhibition” value -3%. Against it:
- Cc1ccc(CN(C)CC(=O)Nc2ccnn2C2CCCC2)o1 — the same, -3%
- CN(C)S(=O)(=O)c1ccc(C(=O)NC[C@H]2CCCN2c2ncccn2)cc1 — lower, -25%
- Cc1cccc(NC(=O)N2CCC(n3cnc4ccccc4c3=O)CC2)c1 — lower, -11%
- CCNC(=O)N1CCN(c2nc(C)nc3[nH]ccc23)CC1 — lower, -5%
- Cc1ccc(-n2c(C)c(CNCc3ccccc3Cl)c(C(=O)O)c2C)cc1 — lower, -7%
- CC(C)n1cncc1CN(Cc1ccc(F)cc1)C1CCOCC1 — higher, 15%
- CC1CCCN(C(=O)c2ncnc(O)c2Br)C1C (centres undefined) — lower, -5%
- CC1CCCCN1C(C)CNS(=O)(=O)N1CCOCC1 (centres undefined) — higher, 0%
- Cc1nc(CC(C)C)cc(C(=O)NCCCN2C[C@@H](C)O[C@@H](C)C2)n1 — higher, 6%
- Fc1cc(Br)ccc1CNc1nc(C2CC2)ns1 — lower, -4%
- CC(C)C[C@H]1NC(=O)c2cc(F)ccc2OCCn2cc(nn2)CCN(C(=O)c2ccc3c(c2)OCCO3)CCNC1=O — lower, -8%
- COc1ncccc1N(C)C(=O)c1cn(C(C)(C)C)nn1 — lower, -14%
- CCN1CCN(C(C)(C)CNc2nc(C)c(C)cc2C(N)=O)CC1 — higher, 1%
- CC[C@](O)(CCCO)CNC(=O)c1ccc(F)c(O)c1 — lower, -20%
- CC(C)C(C)NC(=O)CCC1CCCO1 (centres undefined) — lower, -12%
- C[C@H]1CCOCCN1C(=O)NCCCCN(C)c1ccccc1 — lower, -9%
- COc1cc(S(=O)(=O)N2CCOCC2)cc(C(=O)Nc2ccc(Oc3ccccc3)cc2)c1OC — higher, 0%
- CN=C(NCc1cc2ccccc2o1)N[C@@H](C)c1ccccc1 — higher, 1%
- COc1ccc(NC(=O)C2CCN(c3cc(C(F)(F)F)ncn3)CC2)cc1 — lower, -10%
- CCN1CCO[C@H](CNC(=O)N[C@@H]2c3ccccc3C[C@@H]2F)[C@H]1c1ccccc1 — higher, 2%
- COc1ccc(-c2csc(N(c3ccc(OC)cc3)[C@@H](C)C(=O)N3CCCC3)n2)cc1 — lower, -10%
- O=C(NCCCN1CCOCC1)C1CCC1 — lower, -6%
- CC(Oc1ccc2c(c1)C(c1ccccc1)N(Cc1ccccc1F)CC2)C(=O)N(C)Cc1ccco1 (centres undefined) — lower, -12%
- O=C(NCc1ccccc1)c1c(O)c2cnn(Cc3ccccc3)c2[nH]c1=O — higher, 0%
- CCOC(=O)c1n[nH]cc1CNCc1cccnc1N(C)C — higher, 4%
- CCC(=O)N1CCC(OC2CCN(C(=O)COC)CC2)CC1 — lower, -14%
- C[C@@H]1Oc2ccc(NC(=O)COc3ccccc3Cl)cc2NC1=O — lower, -10%
- O=C(c1ccc(-c2ccc(C(=O)N3CCC(F)CC3)cc2)c(F)c1)C1CC1 — lower, -10%
- CC(C)N1C[C@@]2(CCCN(c3ccc(-c4ccccc4)nn3)C2)CCC1=O — lower, -5%
- CN(C(=O)N[C@H]1CCC(C)(C)c2ccccc21)C1CC[S+]([O-])CC1 (some centres undefined) — higher, 7%
- CCOc1ccc(Cl)cc1CCNC(=O)[C@@H]1CNC(=O)O1 — higher, 1%
- O=C(NCC(=O)N1CC(Oc2cccnc2)C1)OCc1ccccc1 — lower, -10%
- CCOc1ccc(C(=O)N[C@H]2CC[C@H](Oc3ncc(F)cn3)CC2)cn1 — lower, -13%
- Cc1ccc(C(=O)N(C2CCOCC2)[C@H]2CCN(S(C)(=O)=O)C2)cc1C — higher, 28%
- O=C(Cn1cccn1)N1CCC(c2ncc(C(F)(F)F)[nH]2)CC1 — higher, 7%
- COC(=O)c1csc(-n2nc(C(F)F)cc2-c2ccccc2)n1 — higher, 7%
- Oc1cc(CC[C@H]2CCCCN2)cc(-c2ncnc3sccc23)c1 — higher, 2%
- CCCn1cc(CN/C(=N\c2ccc(F)cc2)NC(=O)c2cccc(N(C)C)c2)c(C)n1 — higher, 8%
- COc1ccccc1CN1CCC2(CCC(=O)N(Cc3cnc(C)cn3)C2)CC1 — higher, -2%
- CC1(C)CC(C(=O)Oc2ccccc2)CC(C)(C)N1 — higher, 42%
- Nc1ccc(F)cc1OCCC(F)(F)F — higher, 3%

Point of comparison: CC1CCCCN1C(C)CNS(=O)(=O)N1CCOCC1 (centres undefined), Z score 0.05. Against it:
- Cc1ccc(CN(C)CC(=O)Nc2ccnn2C2CCCC2)o1 — higher, 0.5
- CN(C)S(=O)(=O)c1ccc(C(=O)NC[C@H]2CCCN2c2ncccn2)cc1 — higher, 2.89
- Cc1cccc(NC(=O)N2CCC(n3cnc4ccccc4c3=O)CC2)c1 — higher, 1.23
- CCNC(=O)N1CCN(c2nc(C)nc3[nH]ccc23)CC1 — higher, 0.76
- Cc1ccc(-n2c(C)c(CNCc3ccccc3Cl)c(C(=O)O)c2C)cc1 — higher, 0.93
- CC(C)n1cncc1CN(Cc1ccc(F)cc1)C1CCOCC1 — lower, -1.55
- CC1CCCN(C(=O)c2ncnc(O)c2Br)C1C (centres undefined) — higher, 0.83
- Cc1nc(CC(C)C)cc(C(=O)NCCCN2C[C@@H](C)O[C@@H](C)C2)n1 — lower, -1.18
- Fc1cc(Br)ccc1CNc1nc(C2CC2)ns1 — higher, 0.41
- CC(C)C[C@H]1NC(=O)c2cc(F)ccc2OCCn2cc(nn2)CCN(C(=O)c2ccc3c(c2)OCCO3)CCNC1=O — higher, 1.03
- COc1ncccc1N(C)C(=O)c1cn(C(C)(C)C)nn1 — higher, 3.04
- CC(C)(C(=O)NC[C@H](Cc1ccccc1Cl)C(N)=O)c1c[nH]cn1 — higher, 0.41
- CCN1CCN(C(C)(C)CNc2nc(C)c(C)cc2C(N)=O)CC1 — lower, -0.23
- CC[C@](O)(CCCO)CNC(=O)c1ccc(F)c(O)c1 — higher, 1.9
- CC(C)C(C)NC(=O)CCC1CCCO1 (centres undefined) — higher, 1.29
- C[C@H]1CCOCCN1C(=O)NCCCCN(C)c1ccccc1 — higher, 1.22
- COc1cc(S(=O)(=O)N2CCOCC2)cc(C(=O)Nc2ccc(Oc3ccccc3)cc2)c1OC — lower, -0.06
- CN=C(NCc1cc2ccccc2o1)N[C@@H](C)c1ccccc1 — lower, -0.15
- COc1ccc(NC(=O)C2CCN(c3cc(C(F)(F)F)ncn3)CC2)cc1 — higher, 1.19
- CCN1CCO[C@H](CNC(=O)N[C@@H]2c3ccccc3C[C@@H]2F)[C@H]1c1ccccc1 — lower, -0.38
- COc1ccc(-c2csc(N(c3ccc(OC)cc3)[C@@H](C)C(=O)N3CCCC3)n2)cc1 — higher, 1.5
- O=C(NCCCN1CCOCC1)C1CCC1 — higher, 1.03
- CC(Oc1ccc2c(c1)C(c1ccccc1)N(Cc1ccccc1F)CC2)C(=O)N(C)Cc1ccco1 (centres undefined) — higher, 1.14
- O=C(NCc1ccccc1)c1c(O)c2cnn(Cc3ccccc3)c2[nH]c1=O — lower, 0.04
- CCOC(=O)c1n[nH]cc1CNCc1cccnc1N(C)C — lower, -0.61
- CCC(=O)N1CCC(OC2CCN(C(=O)COC)CC2)CC1 — higher, 1.77
- C[C@@H]1Oc2ccc(NC(=O)COc3ccccc3Cl)cc2NC1=O — higher, 1.69
- O=C(c1ccc(-c2ccc(C(=O)N3CCC(F)CC3)cc2)c(F)c1)C1CC1 — higher, 1.63
- CC(C)N1C[C@@]2(CCCN(c3ccc(-c4ccccc4)nn3)C2)CCC1=O — higher, 0.66
- CN(C(=O)N[C@H]1CCC(C)(C)c2ccccc21)C1CC[S+]([O-])CC1 (some centres undefined) — lower, -0.95
- CCOc1ccc(Cl)cc1CCNC(=O)[C@@H]1CNC(=O)O1 — lower, -0.22
- O=C(NCC(=O)N1CC(Oc2cccnc2)C1)OCc1ccccc1 — higher, 1.98
- CCOc1ccc(C(=O)N[C@H]2CC[C@H](Oc3ncc(F)cn3)CC2)cn1 — higher, 1.53
- Cc1ccc(C(=O)N(C2CCOCC2)[C@H]2CCN(S(C)(=O)=O)C2)cc1C — lower, -3.2
- O=C(Cn1cccn1)N1CCC(c2ncc(C(F)(F)F)[nH]2)CC1 — lower, -1.33
- COC(=O)c1csc(-n2nc(C(F)F)cc2-c2ccccc2)n1 — lower, -0.93
- Oc1cc(CC[C@H]2CCCCN2)cc(-c2ncnc3sccc23)c1 — lower, -0.28
- CCCn1cc(CN/C(=N\c2ccc(F)cc2)NC(=O)c2cccc(N(C)C)c2)c(C)n1 — lower, -1.33
- COc1ccccc1CN1CCC2(CCC(=O)N(Cc3cnc(C)cn3)C2)CC1 — higher, 0.23
- CC1(C)CC(C(=O)Oc2ccccc2)CC(C)(C)N1 — lower, -5.46
- Nc1ccc(F)cc1OCCC(F)(F)F — lower, -0.49
